# In all, about 33,000 sequences were measured (“E-score (-0.5 to 0.5)”: median about -0.035, highest 2% from about 0.35 on). This is one part of the list.
# Target: T1, Pdr3 (UniProt P33200)
# T1 sequence: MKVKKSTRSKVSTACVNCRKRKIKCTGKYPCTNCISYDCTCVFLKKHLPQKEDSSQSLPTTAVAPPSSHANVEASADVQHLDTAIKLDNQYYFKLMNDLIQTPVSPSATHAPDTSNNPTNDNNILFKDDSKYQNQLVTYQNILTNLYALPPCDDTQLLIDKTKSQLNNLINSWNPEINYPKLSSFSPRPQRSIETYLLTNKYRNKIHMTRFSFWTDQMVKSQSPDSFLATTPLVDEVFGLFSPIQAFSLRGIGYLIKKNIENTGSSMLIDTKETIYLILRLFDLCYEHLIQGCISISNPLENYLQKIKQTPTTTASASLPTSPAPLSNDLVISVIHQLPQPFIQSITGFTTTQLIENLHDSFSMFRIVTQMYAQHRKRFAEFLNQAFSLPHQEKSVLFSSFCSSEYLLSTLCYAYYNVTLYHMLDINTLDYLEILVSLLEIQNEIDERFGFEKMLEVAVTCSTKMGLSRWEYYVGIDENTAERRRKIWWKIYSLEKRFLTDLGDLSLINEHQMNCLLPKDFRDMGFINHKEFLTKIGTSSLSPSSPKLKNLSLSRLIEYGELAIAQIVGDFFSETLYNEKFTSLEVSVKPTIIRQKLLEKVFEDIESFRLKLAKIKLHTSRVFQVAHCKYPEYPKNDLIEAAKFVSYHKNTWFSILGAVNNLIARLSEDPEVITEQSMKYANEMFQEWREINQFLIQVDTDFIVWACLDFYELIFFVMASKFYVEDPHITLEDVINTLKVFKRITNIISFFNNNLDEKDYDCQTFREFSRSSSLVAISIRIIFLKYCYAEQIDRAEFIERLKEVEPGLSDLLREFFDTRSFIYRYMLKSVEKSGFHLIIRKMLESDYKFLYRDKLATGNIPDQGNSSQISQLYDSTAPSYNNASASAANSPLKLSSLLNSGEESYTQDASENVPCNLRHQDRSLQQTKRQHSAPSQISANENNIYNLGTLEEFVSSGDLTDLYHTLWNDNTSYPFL
# Test: PBM E-score (8-mer binding enrichment) (E-score (-0.5 to 0.5)); higher = stronger / more preferred TF binding; most listed sequences are background and not binding sites
# Conditions: protein concentration: 200 nM; construct: GST-full length
# Procedure, shortened: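 The E-score, a modified Wilcoxon-Mann-Whitney statistic, was computed by the Universal PBM Analysis Suite for every ungapped eight-base word pooled with its reverse complement. Scans behind it were normalised with masliner after bound GST-tagged yeast transcription factors were detected with fluorescent anti-GST. The proteins, at about 100-200 nM, had been applied to universal all-10-mer Agilent arrays made double-stranded by primer extension.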
row,Sequence,PBM E-score
1,AACCTGCT,0.0169
2,CCGCGCTC,0.244
3,CATTTACG,0.0492
4,GGTCTTTA,-0.0612
5,ATGCGAAC,0.0308
6,TGAAGCAA,-0.204
7,CCTGACTA,-0.0041
8,ATAATCTC,0.0241
9,GTTTGTCA,-0.0177
10,ATGCCTAC,-0.168
11,AGAATTAG,-0.172
12,AAATAAAG,-0.0755
13,TCACTAAA,-0.0987
14,CGACTAAA,-0.0874
15,AGCACAGG,-0.109
16,ATCACGAA,-0.0534
17,AGAACTGC,-0.0982
18,GACAGTTA,0.0178
19,AGATCACG,0.0989
20,TCCGCGAA,0.314
21,AATTGTAG,-0.156
22,CCGCGAAG,0.267
23,AAAAGCGG,0.119
24,CGACGCCA,0.0156
25,AGTGTCCA,-0.122

row,Sequence,PBM E-score
1,ACCTCGAT,0.165
2,AAGACAGG,0.0139
3,GAGAGTCC,-0.0816
4,CTTTATGA,-0.299
5,CACGTTTA,-0.189
6,CTCACCTA,-0.17
7,GGTGTGCA,-0.178
8,TACTCCTA,-0.342
9,GTGAACCA,-0.0802
10,CTAGTTCC,0.31
11,CTCCAAAC,0.0388
12,CCGGTCCA,0.0798
13,AGCTTAGG,-0.0685
14,ACCTAGAC,0.00523
15,CAGGTCCG,0.257
16,AGTAGGTC,-0.0773
17,AGGTCCCA,-0.211
18,CCAGGTGC,0.00594
19,CGGGGGAA,0.276
20,AGTAGGAA,-0.31
21,CTTAATCC,0.0482
22,CATCGGTA,0.0816
23,GCAGTCCC,0.0813
24,GGGGTGAA,-0.0358
25,GTTCTTAA,0.0247

row,Sequence,PBM E-score
1,CTTTCTGC,-0.0975
2,GTCATAGA,-0.0724
3,CCGTGAAG,0.0621
4,ATTGGTGG,-0.0235
5,ACGTACAT,-0.0677
6,ATTGCTCG,0.0872
7,CCGTCTAC,0.12
8,CTTTCAAA,0.0688
9,CACGCCTC,-0.177
10,CCGAGGCA,0.117
11,AAACGGAT,0.377
12,GCCGAATA,0.234
13,GCACTTAA,-0.0886
14,ACCTGACT,-0.131
15,AACTATAG,-0.138
16,GGTGCACC,-0.0384
17,CAGAATCA,-0.0974
18,CTCGACCA,-0.185
19,CCATGCGC,0.0856
20,AATTGGAC,-0.00087
21,ACGCAGTC,-0.282
22,GGCTACGA,-0.168
23,AGGACCCA,-0.256
24,CATCATCC,-0.015
25,AATGTACA,0.0279

row,Sequence,PBM E-score
1,CCTAGTAA,-0.0473
2,CGTTAGTC,-0.0535
3,ATCTCCCG,0.23
4,ACTAGGAA,-0.168
5,CCGCCGAC,0.146
6,ATCGAATC,0.1
7,GCAAATGC,-0.19
8,AATTAGGT,0.00648
9,CGGACGTA,0.0483
10,AGCGACCA,-0.0054
11,CTCTGAAA,-0.0648
12,ATTAAGCC,0.0878
13,AAGATTCT,-0.165
14,GGATGTAC,-0.015
15,GTTCACGA,0.0586
16,CTCTACAG,-0.224
17,CAGTTCTA,-0.074
18,ATGGCTAA,-0.132
19,ATAGCTAA,-0.088
20,AAACGCGG,0.245
21,CTACTTTA,-0.11
22,CTCGTGTC,-0.13
23,TGAGTCAA,-0.11
24,AGCCAGCA,-0.229
25,AACGGTAC,0.146

row,Sequence,PBM E-score
1,AATGATCA,-0.153
2,GCATTCGC,-0.125
3,CATCTATA,-0.0337
4,CCGCCCGG,0.407
5,GAGCAGTA,0.0657
6,GCCTCAGC,-0.0249
7,AATTATGC,0.0699
8,ACTGTTCT,-0.129
9,CATTAACC,0.0602
10,ATCAGTCG,-0.0314
11,ATGAATTA,-0.0872
12,CCTACGTC,-0.172
13,AAAACCAA,-0.0135
14,ATTCACTC,-0.0568
15,CATTCCCG,0.274
16,ATACTTGG,-0.157
17,GGGGAGTA,-0.092
18,AATGGGTG,0.213
19,ATCTATGG,-0.0734
20,GTGTCAAA,-0.0534
21,AAAGGCCG,0.196
22,ACGAGACA,-0.0207
23,ATTGGCTC,-0.0435
24,CGAAGGTC,-0.0506
25,ATCGGGGG,0.0408

row,Sequence,PBM E-score
1,ACGCCCTC,-0.0801
2,GAATACAA,0.228
3,AGCGAAAT,0.0309
4,GCGAAAGA,-0.0453
5,GACAAAAA,0.0605
6,CGTTGCGC,0.0971
7,CAGTGATA,-0.0345
8,AATTTAAG,-0.129
9,AATTCCAG,0.0797
10,CATCCTCA,-0.105
11,CCATTGGG,-0.253
12,GGCAGTAC,-0.114
13,ATTTCAAG,-0.201
14,AAGAGAGA,-0.212
15,GCCGGTAC,0.0986
16,GTATACAA,-0.0525
17,GCGCATCC,0.0589
18,ACATGTCC,0.0604
19,AAAAGCTT,-0.218
20,CAGTACAA,-0.159
21,GTACGGGA,0.217
22,AATCTCAC,-0.222
23,GCCGGTAA,0.293
24,CCGGCCTC,0.156
25,CATCTCGA,-0.103

row,Sequence,PBM E-score
1,ATAGTTCC,0.308
2,AACTAACT,-0.0733
3,GCAGAACC,-0.0949
4,CAAATTCG,0.169
5,TCAAAAGA,-0.0504
6,ACCTGCGA,-0.146
7,CTGCTCAC,-0.295
8,GAACTGTA,0.129
9,CTGTCAAC,-0.0859
10,GGCATCAA,-0.169
11,CAAATAGG,-0.103
12,CCATCACG,-0.0266
13,ACACGACC,0.00705
14,GTAGTGCA,-0.00877
15,AGACTTGG,-0.24
16,AATCAGCA,-0.137
17,ACAACATA,0.0189
18,GACGACCA,-0.115
19,AATTTGTA,-0.0191
20,TAGCTCGA,-0.025
21,CCTTCTGC,-0.119
22,AATTCGCG,0.138
23,AGGATAAA,-0.128
24,ACCAACGC,0.0347
25,AGGAAACA,-0.0166

row,Sequence,PBM E-score
1,CTGATGGC,-0.00783
2,ATTGTTAG,-0.0868
3,GTATTCTA,-0.0358
4,CAATCTGC,-0.132
5,GATGAGTA,-0.00761
6,CAGCGTCC,0.0532
7,CAAACACC,0.0018
8,ATTCCGGC,0.448
9,AACGCTCA,-0.208
10,CCACTTAG,-0.149
11,CCTGCCCC,-0.129
12,CTATTATC,0.0421
13,CTCTAAGA,-0.0138
14,GACTCAAA,-0.197
15,CCCTCGTC,0.0176
16,CGTCCTGA,-0.113
17,CTCAAAAC,-0.118
18,CGGGATGA,0.369
19,CAGTTTAG,-0.233
20,CAAACCTC,-0.206
21,GTGGCTGA,0.0919
22,GTAGGGAA,-0.00713
23,GTCTTACA,-0.255
24,ACAGCTTC,-0.143
25,CAAAACCA,-0.0341

row,Sequence,PBM E-score
1,GAATCTTA,0.0385
2,ATAAGTGC,-0.105
3,GATTCACA,-0.103
4,AAAACCTG,-0.197
5,GTCTCAAA,-0.115
6,AACGTTAT,-0.106
7,ATTGCGGG,0.228
8,CCGGATCG,0.391
9,ACGTAACT,-0.363
10,CTCATTCC,0.356
11,ACATACCA,-0.0697
12,GGTCGGGA,0.283
13,CGCATGGC,0.158
14,GAAAGACA,0.0212
15,CGGCAATC,0.299
16,AGTATTTG,-0.277
17,GATGACGC,-0.0417
18,AGAGCAAC,-0.197
19,GTGTGCCA,-0.147
